Laboratory results as given in PubChem BioAssay (NCI).
“And” between values parts separate entries of the source, which are not always exact repeats. Equal entries are not always repeated.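 Briefly, cells in 96-well plates were exposed to five compound concentrations for 48 h, and endpoints were estimated by linear interpolation. GI50 marks 50% less growth. TGI is the concentration that stops growth completely.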 Numbered stars: 1 amine (or outer) side, 2 acyl side, 3 side chain; on linkers, the order of the positions; unused ones are H or OH. Bridge positions count the residues as written; N and C are the ends. Peptide text beside a SMILES is read from it. I, II: the chains in the order shown. X16 = CCCCCCCCCCCCCCC(=O)NC(CCCCN[*:2])C(=O)CN1CCCC1C(=O)[*:1]

Tested on: NCI-H322M lung
Assay: inhibition of tumour cell growth, NCI panel, 48 h

| SMILES | GI50 | TGI |
| --- | --- | --- |
| Cc1cc(N2CCN(C)CC2)nc(N(CCNc2ccnc3cc(Cl)ccc23)Cc2ccco2)n1 | 2.8 µM | 11.2 µM |
| Clc1ccc(/C=C/c2nc(-c3ccc(Cl)cc3)cn3c2nc2ccccc23)cc1 | – | > 100 µM |
| COC(=O)c1ccc(-n2c(C)nc(=O)c(-c3ccccc3)c2C)cc1 | – | > 100 µM |
| O=C1NC(=O)/C(=C/c2ccc(S(=O)(=O)N/N=C/c3ccccc3)cc2)N1 | – | > 100 µM |
| CSc1ncc2c(C#N)c3ccccn3c(=O)c2n1 | – | > 100 µM |
| O=C1NC2(NC(=O)C1=O)Nc1ccccc1S2 | – | > 100 µM |
| CCOC(=O)c1c(SC)nc(-c2ccc(Cl)cc2)sc1=N | – | > 100 µM |
| Cc1ccc2c(n1)C(=O)C(Cl)=C(Nc1ccc(N3CCN(C)CC3)cc1)C2=O | 16.4 µM | 30 µM |
| O=C(NC1CCNCC1)c1[nH]ncc1NC(=O)c1c(Cl)cccc1Cl | 0.498 µM and 0.343 µM | > 29.3 µM |
| Cn1c2c(c3ccccc31)CC(=O)N1CCCC(C1)CC21OCCO1 (stereo not given) | – | > 100 µM |
| CCOC(=O)C/C(N)=C(\C#N)C(=O)OCC | – | > 100 µM |
| CCCCCCCCCCCCNC(=O)[C@H]1CSC(c2cc(Br)cs2)N1 (stereo not given in full) | 5.43 µM | 11.4 µM |
| O=NNc1ccc(Sc2ccc3ccccc3c2)cn1 | – | > 100 µM |
| COC(=O)[C@H]1CC(=O)C=C2CCCC21 (stereo not given in full) | – | > 100 µM |
| CCOC(=O)c1ncn2c1[nH]c(=O)c1ccccc12 | – | > 100 µM |
| O=CN(O)CC(=O)O.[Ni] | – | > 100 µM |
| O=C(Nc1sccc1S(=O)(=O)c1ccc(Cl)cc1)c1ccc(Cl)cc1Cl | – | > 100 µM |
| CC(N)CN.CC(N)CN.[Cl-].[O]=[Os+2]=[O] (stereo not given) | > 100 µM | > 100 µM |
| CC(=O)N1N=C(c2ccc3ccccc3c2O)CC1c1ccc(Cl)cc1Cl (stereo not given) | – | > 100 µM |
| COc1ccc(/C=C/c2ccnc3ccccc23)cc1 | – | 27.3 µM |
| COc1ccc2oc(-c3cc4cc(OC)ccc4o3)cc2c1 | – | > 100 µM |
| Cc1ccc(NC(C(=O)c2ccccc2)c2ccccc2)cc1 (stereo not given) | 3.31 µM | 50.3 µM |
| CCCCCCCCCCCCCCC(=O)NC(CCCCNC(=O)C1CCCN1C(=O)C(CCCCN)NC(=O)C(CCCCN)NC(=O)C(CCCCN)NC(=O)C(CCCNC(=N)N)NC(=O)C(CCCCN)NC(=O)C(N)C(C)C)C(=O)CN1CCCC1C(=O)NCC(=O)NC(Cc1ccccc1)C(=O)N1CCCC1C(=O)NC(CO)C(=O)NC(Cc1ccc(O)cc1)C(=O)NC(CCCCN)C(=O)NC(CC(C)C)C(=O)NC(CCCNC(=N)N)C(=O)N1CCCC1C(=O)NCC(N)=O (stereo not given) (I: GFPSYKLRPG-NH2 / II: H-VKRKKKP; linker I:N-II:C via X16; configuration not given here) | 17.8 µM | 48.3 µM |
| COc1ccc(C2c3cc4c(c(OC)c3CC3OCC(=O)C32)OCO4)cc1OC (stereo not given) | < 0.01 µM | > 100 µM |
| O=C1NC(=O)C(N2CCc3ccccc32)=C1c1ccc(Cl)cc1 | > 25 µM | > 25 µM |

| SMILES | GI50 | TGI |
| --- | --- | --- |
| COc1cc2c(cc1OCc1ccccc1)N=C[C@@H]1C[C@@H](F)CN1C2=O | 2.04 µM | 4.6 µM |
| O=C(CCCCCNC1=CC(=O)c2ccccc2C1=O)NCCC[Te]c1ccccc1 | 0.481 µM | 3.56 µM |
| Nc1ncnc2c1ccn2CC=C(CO)CO | – | > 100 µM |
| Nc1nc(NNc2ccccc2F)cc(=O)[nH]1 | – | > 100 µM |
| c1csc(-c2ccc(-c3ccsc3)s2)c1 | – | > 100 µM |
| COc1ccc2[nH]c3c(C)c4ccnc(NCCCN(C)CCCN)c4c(C)c3c2c1 | – | 0.974 µM |
| O=C(Cc1nc2ccc(C(=O)c3ccccc3)cc2[nH]c1=O)C(=O)Nc1ccc(C(F)(F)F)cc1[N+](=O)[O-] | – | > 100 µM |
| [CH3][Sn]([CH3])([CH3])[O]C(=O)C(O)c1ccccc1 (stereo not given) | 8.7 µM | > 89.7 µM |
| Cc1cc(O)c2cc3c(O)c(O)ccc3cc2c1 | – | > 100 µM |
| Oc1[nH]c2ccc(Cl)cc2c1/C=c1/ccc2c(c1)N=C(c1ccc(C(F)(F)F)cc1)N=2 | 4.63 µM | 49 µM |
| Cc1ccc(C)c(NC(=O)C(=O)CC(=O)c2cccc3ccccc23)c1 | – | > 100 µM |
| CNC(=O)C1CCC(=O)N1CN(C(C)=O)c1ccccc1 (stereo not given) | – | > 100 µM |
| O=C1c2ccccc2-c2c1c1c(O)cccc1n2CCCc1ccccc1 | 32.6 µM | > 100 µM |
| [O-]/N=N\c1on[n+](CCc2ccccc2)c1Cc1c(/N=N/[O-])on[n+]1CCc1ccccc1 | – | > 100 µM |
| NS(=O)(=O)c1ccc(N=Nc2ccc(O)c(O)c2)cc1 | – | 64.8 µM |
| CCCCCCCCn1ccc2cc(NC(=O)Cn3cc(CN4CCC(C)CC4)nn3)ccc21 | 1.63 µM | 3.05 µM |
| C=C(C)C1Cc2c(cc(OC)c3c(=O)c4ccccc4n(C)c23)O1 (stereo not given) | – | > 100 µM |
| CN(CCNC(=O)c1cn(C)c2c1ccc1cc(Cl)ccc12)CCNC(=O)c1cn(C)c2c1ccc1cc(Cl)ccc12 | – | 3.47 µM |
| COc1ccc2c(c1)CC[C@@H]1C2CC[C@]2(C)C(=O)N(CCN3CCCCC3)C(=O)CC12 (stereo not given in full) | – | > 100 µM |
| O=S(=O)(c1ccccc1)n1cnc(CCc2ccccc2)n1 | – | > 100 µM |
| Cc1ccc([S+](c2ccccc2)c2cc(C)ccc2C)cc1 (stereo not given) | – | 34.6 µM |
| CS(=O)/C(C#N)=C\C=C\c1cccc(Cl)c1 (stereo not given) | 2.44 µM | 13.6 µM |
| CC(C)(C)OC(=O)N(CCCCNC(=O)c1ccccc1)CCCNC(=O)c1ccccc1 | – | > 100 µM |
| COc1cc(-c2ccc(Nc3ccccc3C(=O)O)c(OC)c2)ccc1Nc1ccccc1C(=O)O | – | > 93.4 µM |
